Experimental findings from PubChem BioAssay AID463173 (ICCB-Longwood Screening Facility, Harvard Medical School, 2010) are described below.

The structures appear in SMILES notation. Screen size: about 52,000 compounds; about 4,300 (8.3%) were called active. Rule as the data show it: active = survival mostly below about 52% (no sharp cut-off); inactive = mostly above about 56%. The list shows a part of the results.

The assay deals with DeltatarO mutant. Kind of assay: S. aureus survival, RN4220 and DeltatarO strains – OD600, teichoic acid synthesis inhibitors, primary screen (AID 463173). Particulars: S. aureus RN4220 wild type/DeltatarO growth, OD600, 18 h, stronger effect = lower value, screened at 18.75 µg/mL (by protocol).
Turning to `CSc1ccc(CCNC(=O)Cn2ncn3c(cc4ccccc43)c2=O)cc1`, the survival was inactive: 77%.
Consider `CCOc1ccc(-n2c(=O)c3c(C)c(C)sc3n(CC(=O)Nc3ccc(CC)cc3)c2=O)cc1`, for which the survival is active: 46%.
As for `Cc1ccccc1Nc1c(-c2cccnc2)nc2cccc(C)n12`, the survival was inactive: 92%.
As to `C/C(=N\NC(=O)c1ccc(N)cc1)C(C)(C)C`, the survival was inactive: 65%.
For the compound `O=C(NCCN1CCCC1)c1ccc(Cl)cc1`, the survival is inactive: 98%.
As for `CC(C)CCn1nnnc1CN1CCN(C(=O)c2ccco2)CC1`, the survival was inactive: 60%.
For the compound `CC(C)c1ccc(NC(=O)C2Cc3ccccc3N2C(=O)c2ccccc2)cc1` (stereo not given), the survival is inactive: 69%.
Turning to `COc1ccc(CNc2nc(-c3ccc(Cl)cc3)nn2C(=O)c2ccccc2)cc1`, the survival is active: 36%.
On to `COc1ccccc1CNC(=O)c1ccc(CSc2nc3ccncc3n2Cc2ccccc2C)cc1`, for which the survival was inactive: 74%.
Under `Cc1ccc(S(=O)(=O)C2(C(=O)Nc3ccc(C(C)C)cc3)CC2)cc1` stands active: 19%; under `Cc1cccc(CN2CCC(C(=O)N3CCC(C)CC3)CC2)c1`, inactive: 101%; under `COc1ccccc1Nc1c2c(nc3ccc(NC(=O)/C=C/c4cc(OC)c(OC)c(OC)c4)cc13)CCCC2`, inactive: 81%.
Under `CCN(CC)C(=O)CSc1cn(CC(=O)N2CCCCCC2)c2ccccc12` stands inactive: 94%.
Consider `Cc1ccc(NC(=O)C2CCN(c3nc4ccccc4nc3C(F)(F)F)CC2)cc1C`, for which the survival was inactive: 91%.
As to `CCn1c2ccccc2c2nnc(N3CCN(c4ccc(OC)cc4)CC3)nc21`, the survival is inactive: 70%.
Under `COc1ccc(-c2cc(C(F)(F)F)nc(SCCC(=O)Nc3ccc(O)cc3)n2)cc1` stands inactive: 70%.
As for `CCOC(=O)Cn1nc(C)c(NC(=O)COc2ccc(C)c(C)c2)c1C`, the figure is inactive: 73%.
As for `CCCN(CCC)S(=O)(=O)c1ccc(N2CCCCS2(=O)=O)cc1`, the figure is inactive: 73%; as for `CCOc1ccc(-n2cc(-c3ccccc3)c3c(NCc4ccc(F)cc4)ncnc32)cc1`, inactive: 95%; as for `Cc1ccc(-n2ncc(C(=O)N3CCN(c4ncccn4)CC3)c2C2CCN(C(=O)OC(C)(C)C)CC2)cc1`, inactive: 80%.
For the compound `Cc1cc(C)cc(N2C(=O)CS(=O)(=O)C23C(=O)N(C)c2ccccc23)c1` (stereo not given), the survival was inactive: 76%.
As to `Cc1nc(-c2ccc(S(=O)(=O)N(C)Cc3ccccc3)cc2)co1`, the survival is inactive: 95%.
As to `CCc1ccc(Nc2ncnc3sc4c(c23)CCCC4)cc1`, the survival was inactive: 72%.
Turning to `COc1ccc(CNc2n[nH]c(-c3ccco3)n2)cc1OC`, the survival was active: 62%.
Take `COc1cc(NC(=O)Cn2c(=O)n(Cc3ccccc3Cl)c(=O)c3cc(OC)c(OC)cc32)cc(OC)c1`: the survival was inactive: 99%.
As for `O=C(N1CCOCC1)N1CCN(S(=O)(=O)c2ccccc2)C1`, the figure is inactive: 91%; as for `CCCc1c(C(=O)OCC)nnc2c(-c3ccccc3)c(C)nn12`, inactive: 49%.
As to `CCCN(C(=O)c1cc2c(=O)n(CC)c3ccccc3c2s1)c1ccccc1F`, the survival is inactive: 64%.
As for `COc1ccc(CCN2C(=O)N(c3ccc(F)cc3)C(=O)C2CC(=O)Nc2ccccc2)cc1OC` (stereo not given), the figure is inactive: 76%; as for `Fc1ccc([C@@H]2Nc3ccccc3[C@@H]3C=CC[C@@H]32)cc1`, inactive: 56%; as for `O=C1OC(C(=O)O)Cc2ccccc21` (stereo not given), inactive: 94%.
For the compound `Nc1ccc(Cc2ccccc2)cc1`, the survival is inactive: 69%.
As for `COc1ccc(/C=C/c2nc(C#N)c(N3CCCCCC3)o2)cc1OC`, the figure is active: 45%; as for `O=C(Cn1cc(S(=O)(=O)c2ccc(Cl)cc2)c(=O)c2ccccc21)Nc1ccc2c(c1)OCO2`, inactive: 60%; as for `Cc1ccc(C)c(NC(=O)CSc2ncc3c(n2)-c2ccccc2N(Cc2ccccc2C)S3(=O)=O)c1`, inactive: 95%.
As for `Cc1ccc(C)c(S(=O)(=O)Nc2ccc3c(c2)CCCN3C(=O)c2cccs2)c1`, the figure is active: 47%.
With `COc1ccc(CNS(=O)(=O)c2ccc3c(c2)NC(=O)C(C)C(=O)N3)cc1` (stereo not given), the survival is inactive: 88%.
As for `Cc1nnc(N2CCC(C(=O)N3CCCCC3)CC2)c2nn(-c3ccccc3)c(C)c12`, the figure is inactive: 125%; as for `COc1ccc(C)cc1NS(=O)(=O)c1ccc(-c2cnc(C3CC3)o2)cc1`, inactive: 78%; as for `Cc1ccc(C)c(Nc2ncnc3c2cnn3-c2ccc(F)cc2)c1`, active: -1%.
As for `O=S(=O)(Nc1ccc(F)cc1F)c1ccc(Br)s1`, the figure is active: 22%; as for `COc1ccc(OCc2ccc(-c3nc(C#N)c(N4CCC(C(N)=O)CC4)o3)o2)cc1`, inactive: 72%; as for `Cc1ccc(CNC(=O)c2nnn(Cc3ccc(F)cc3)c2N)cc1`, inactive: 91%.
For the compound `COc1ccc(CCNC(=O)c2cnc3sc(N4CCOCC4)nn3c2=O)cc1OC`, the survival is inactive: 82%.
On to `CCn1c2c(c(=O)n3ncc(C(=O)Nc4ccc(OC(F)(F)F)cc4)c13)CN(Cc1ccc(OC)cc1)CC2`, for which the survival is inactive: 94%.
Take `COc1ccc(CCNC(=O)c2c[nH]n3c(=O)c(Cc4ccccc4Cl)c(C)nc23)cc1OC`: the survival is active: 32%.
As to `O=C(Nc1cc(-c2nc3cc(Cl)ccc3o2)ccc1Cl)c1cccc2ccccc12`, the survival is active: 44%.
Under `O=C(c1ccc(Nc2nc3ccccc3n3nnnc23)cc1)N1CCN(c2ccc(F)cc2)CC1` stands inactive: 53%.
As for `COc1ccc(C2c3c(n(C)c4ccccc34)C(=O)N2CC(=O)Nc2ccccc2Cl)cc1` (stereo not given), the figure is inactive: 102%; as for `COc1cc(NC(=O)c2cc3nc(-c4ccc(C)cc4)cc(C(F)(F)F)n3n2)cc(OC)c1OC`, active: 41%; as for `CCOC(=O)C1=C(N)OC2=C(C(=O)CC(C)(C)C2)C1c1ccccc1` (stereo not given), inactive: 73%.
As for `Cc1ccc(C(=O)N2CCc3cc(CNC(=O)c4ccnn4C)ccc32)cc1`, the figure is inactive: 91%.
For the compound `Cc1ccc(NS(=O)(=O)c2ccc3c(c2)NC(=O)CCS3)cc1F`, the survival is inactive: 67%.
On to `Cc1cn(C)c(CC(=O)N2CCN(c3ccc(F)cc3)CC2)c1C(=O)O`, for which the survival was inactive: 128%.
As for `O=C(NCc1ccc2c(c1)CCN2C(=O)c1ccccc1)c1ccc(Br)o1`, the figure is inactive: 84%; as for `CC(C)COC(=O)Nc1ccc2c(c1)OCO2`, inactive: 62%.
Consider `COc1ccccc1N1CCN(c2cc(C)nc3c(-c4ccc(Cl)cc4)c(C)nn23)CC1`, for which the survival was inactive: 87%.
Under `COCCCNc1nc2c(c(=O)n(C)c(=O)n2C)n1Cc1ccccc1` stands inactive: 92%.
Turning to `COCCOC(=O)C1=C(C)N=C2SCCC(=O)N2C1c1ccc(OCc2ccccc2)c(OC)c1` (stereo not given), the survival is inactive: 58%.
As for `COc1cccc(-c2[nH]c3c(c2-c2c(-n4cccc4)n(C)c(=O)[nH]c2=O)c(=O)[nH]c(=O)n3C)c1`, the figure is active: 63%; as for `COCCNC(=O)CCSc1nc(-c2ccc3c(c2)OCO3)cc(C(F)(F)F)n1`, inactive: 66%; as for `CC(C)c1nc2ccc(C(=O)NCCCN3CCN(c4ccc(F)cc4)CC3)cc2o1`, inactive: 74%.
Take `CCC1CN(C(=O)N2CCC(C(=O)NCc3ccco3)CC2)c2cc(C)ccc2O1` (stereo not given): the survival was inactive: 79%.
For `COc1cccc(-n2c(-c3ccc(C)cc3)cc3c2CC(C)(C)CC3=O)c1`, the survival is active: 18%.
In the case of `CCCCOc1ccc(CNC(=O)c2cnc3sc(N4CCC(C)CC4)nn3c2=O)cc1`, the survival was inactive: 79%.
Take `Cc1ccc2c(c1)CC(C)N2S(=O)(=O)c1nnc(NC(=O)CC(C)C)s1` (stereo not given): the survival was inactive: 59%.
For `Cc1cc(C)c2c(CC(=O)Nc3c(C(=O)c4ccc(F)cc4)oc4ccccc34)coc2c1`, the survival was inactive: 90%.
Under `COc1ccc(OC)c(NC(=O)CCc2c(C)nc3c(c(C)nn3C(C)(C)C)c2C)c1` stands inactive: 83%; under `CC(C)c1ccc2occ(CC(=O)Nc3cccc(C(F)(F)F)c3)c2c1`, active: 0%; under `Cc1sc2nc(C)n(NC(N)=O)c(=O)c2c1C`, inactive: 97%.
`CCN(C(=O)Cn1cc(C(=O)c2ccc(F)cc2)c(=O)c2ccc(C)nc21)c1cccc(C)c1`: the survival is inactive: 71%.
As for `CC1CCCCN1c1nc(-c2ccc(C(C)(C)C)cc2)nc2ccccc12` (stereo not given), the survival is active: 3%.
Under `COc1cc(NC(=O)Cn2c(=O)nc(-c3ccccc3F)c3cc(Cl)ccc32)cc(OC)c1` stands inactive: 102%.
On to `Cc1ccc(C)c(N2CCN(C(=O)Cn3c(C)c4cnn(-c5ccccc5)c(=O)c4c3C)CC2)c1`, for which the survival is inactive: 105%.
With `COC(=O)c1ccccc1NC(=O)Cn1nc(C(F)(F)F)c2c1CCCC2`, the survival was active: 5%.
Under `CCOc1ccc(C(=O)N2CCC(c3ccncc3)CC2)cc1` stands inactive: 94%.
Turning to `COc1ccc(CC(=O)Nc2nnc3n2CCS3)cc1`, the survival is inactive: 79%.
Regarding `O=C(CC1Oc2ccccc2NC1=O)NCc1ccc(F)cc1` (stereo not given), the survival is inactive: 118%.
As to `Cc1ccc(CSc2nc3ccsc3c(=O)n2CCC(C)C)cc1`, the survival is active: -5%.
As to `O=c1oc2ccc(F)cc2cc1-c1nc(-c2cccs2)no1`, the survival is inactive: 92%.
Under `CCN1CCN(C(=O)c2ccc3c(c2)N(Cc2ccc(F)cc2)C(=O)c2ccccc2S3(=O)=O)CC1` stands inactive: 135%.
Under `Cc1cccc(OCc2nnc(-c3ccccc3)o2)c1` stands inactive: 50%; under `CCn1c2c(c(=O)n3ncc(C(=O)Nc4ccc(F)cc4Cl)c13)CN(Cc1ccc(OC)cc1)CC2`, inactive: 55%; under `CCOC(=O)Cn1nc[n+]2[nH]c(C)cc(=O)c12`, inactive: 73%.
For the compound `Cc1c(NC(=O)c2ccc(Cl)cc2)cc(C(C)C)c(O)c1S(=O)(=O)c1ccccc1`, the survival was inactive: 57%.
Under `CCc1ccc(NC(=O)c2ccc3c(O)c(S(=O)(=O)c4ccccc4)c(=O)[nH]c3c2)cc1` stands inactive: 89%; under `Cc1cc(=O)n(Cc2ccccc2Cl)c2c1c(C)nn2-c1ccccc1`, inactive: 100%; under `Cc1cc(NC(=O)CSc2nc3c([nH]c4ccccc43)c(=O)n2-c2ccc(Cl)cc2)no1`, inactive: 80%.
As for `COc1ccccc1CNC(=O)CCS(=O)(=O)c1ccc2c(c1)CC(C)N2C(=O)C1CC1` (stereo not given), the figure is active: 8%; as for `O=C(NCC1CCN(Cc2ccccc2Cl)CC1)c1cc2ccc3cccnc3c2[nH]1`, inactive: 73%.
